According to the BET-seq Pho4 binding data (Le et al. 2018):
The list shows a part of the results. These are noisy estimates, calculated here from bound and input reads.

These sequences were tested against T1, Pho4 (S. cerevisiae) (UniProt P07270) (assay: relative binding free energy (BET-seq); higher = weaker binding). Conditions: reference: library average.
T1 sequence: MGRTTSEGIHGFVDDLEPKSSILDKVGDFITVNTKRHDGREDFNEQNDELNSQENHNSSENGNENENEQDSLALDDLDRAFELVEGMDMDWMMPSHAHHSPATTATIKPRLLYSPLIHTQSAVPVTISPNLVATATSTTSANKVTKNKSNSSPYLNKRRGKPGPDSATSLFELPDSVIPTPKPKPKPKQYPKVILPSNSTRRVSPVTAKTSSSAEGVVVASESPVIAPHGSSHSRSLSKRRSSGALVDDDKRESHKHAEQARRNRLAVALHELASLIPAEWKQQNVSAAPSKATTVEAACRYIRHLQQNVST

Sequence | relative binding free energy
TGATTCACGTGAGGGC | 0.5 kcal/mol
TGTACCACGTGGTAGG | -0.16 kcal/mol
TTCGGCACGTGGGGCT | -0.2 kcal/mol
AAAGTCACGTGGGTCT | -0.09 kcal/mol
TGAGTCACGTGGTCGA | -0.03 kcal/mol
GGGGCCACGTGGCATG | -0.12 kcal/mol
GTTGACACGTGCGCGT | -0.07 kcal/mol
CGGTTCACGTGTTGGG | 0.25 kcal/mol
ATATGCACGTGTTAGG | -0.08 kcal/mol
GAAGTCACGTGTTAAT | 0.21 kcal/mol
TAATGCACGTGGAATT | -0.02 kcal/mol
CTGGGCACGTGGGTAT | -0.16 kcal/mol
TGGTTCACGTGCTGAG | 0.23 kcal/mol
TACGTCACGTGGATTT | 0.02 kcal/mol
ATTGTCACGTGTTGTT | 0.1 kcal/mol
GCTTACACGTGGTGTG | 0.05 kcal/mol
ATGGGCACGTGAAGGG | 0.14 kcal/mol
TTATACACGTGCTTTG | -0.1 kcal/mol
GGGCTCACGTGGATTT | 0.4 kcal/mol
AATTGCACGTGTGGGG | -0.01 kcal/mol
CCTGACACGTGGTGGT | -0.06 kcal/mol
GTTGGCACGTGGGCTA | -0.16 kcal/mol
GAATTCACGTGTGTGG | 0.22 kcal/mol
TTTGACACGTGGCGTC | -0.16 kcal/mol
TTTGGCACGTGATAAT | 0.09 kcal/mol
ATATTCACGTGTGCGT | 0.11 kcal/mol

Sequence | relative binding free energy
GGTCGCACGTGTTGTG | 0.06 kcal/mol
GAGAGCACGTGTTTCG | 0.03 kcal/mol
TTTGGCACGTGCTGTT | -0.13 kcal/mol
TAGTGCACGTGGTGTG | -0.09 kcal/mol
ATGGTCACGTGGTGTT | -0.03 kcal/mol
AGTGTCACGTGTTGGC | 0.05 kcal/mol
TTGTTCACGTGAACAG | 0.32 kcal/mol
TAGTGCACGTGGTGAT | -0.11 kcal/mol
AAGATCACGTGTGGGA | 0.15 kcal/mol
GTTGACACGTGTTTGA | 0.02 kcal/mol
AGTCTCACGTGGTTAT | 0.23 kcal/mol
AGATTCACGTGTGAGT | 0.3 kcal/mol
TTTATCACGTGGAGAT | 0.11 kcal/mol
TTAATCACGTGGCGGT | 0 kcal/mol
TAGTACACGTGGTTGC | 0 kcal/mol
TTACTCACGTGATATT | 0.31 kcal/mol
TCTGTCACGTGAGTGC | 0.2 kcal/mol
TCTTGCACGTGGATTA | -0.02 kcal/mol
ATTTTCACGTGAGTAG | 0.38 kcal/mol
TGTGGCACGTGGGGGG | -0.16 kcal/mol
GTTTTCACGTGCATTG | 0.37 kcal/mol
TTGGTCACGTGCGATG | 0.09 kcal/mol
TATTTCACGTGTAGTA | 0.24 kcal/mol
AGTGACACGTGTTTAG | -0.02 kcal/mol
GAGTTCACGTGGTATA | 0.32 kcal/mol
TGTAGCACGTGTTCTT | -0.11 kcal/mol

Sequence | relative binding free energy
TGAGTCACGTGGAGGA | 0.03 kcal/mol
AAGGTCACGTGGTGCT | 0.02 kcal/mol
CAAGGCACGTGGGGTG | -0.35 kcal/mol
AGTCTCACGTGTGTGT | 0.19 kcal/mol
GCAGGCACGTGTTGTT | 0.03 kcal/mol
GGTTACACGTGGTGTC | 0.13 kcal/mol
CGGGACACGTGAAAGG | 0.35 kcal/mol
GACAACACGTGTGGGT | 0.21 kcal/mol
TCGGACACGTGGATTG | 0.12 kcal/mol
TGTTGCACGTGCGCTG | -0.23 kcal/mol
CTATCCACGTGGTGTT | 0.02 kcal/mol
GGGAGCACGTGTTTTC | 0 kcal/mol
TCTTACACGTGGATGT | 0.16 kcal/mol
GGTCTCACGTGCGGGC | 0.29 kcal/mol
CGGGACACGTGTGGGT | 0.14 kcal/mol
TTGTACACGTGAGATA | 0.2 kcal/mol
GGAAGCACGTGTGTGG | -0.15 kcal/mol
ATAGGCACGTGGCGTG | -0.32 kcal/mol
GTCGACACGTGTTTTT | 0.1 kcal/mol
TTCGGCACGTGGATGA | -0.03 kcal/mol
AATGTCACGTGGAGGT | 0.03 kcal/mol
ATAGACACGTGAAAGG | 0.3 kcal/mol
AGTGGCACGTGTGAGT | -0.04 kcal/mol
GCGGGCACGTGAATGG | 0.52 kcal/mol
GGGCGCACGTGTATTG | -0.15 kcal/mol
CTTGTCACGTGGGTGA | 0 kcal/mol

Sequence | relative binding free energy
CGAGTCACGTGATGTA | 0.18 kcal/mol
GGATACACGTGGTGGT | 0.07 kcal/mol
CTCGGCACGTGTTGTT | 0.05 kcal/mol
TAGTACACGTGGGTTA | -0.09 kcal/mol
TGGTACACGTGCTATT | -0.06 kcal/mol
GATTGCACGTGTCGTA | 0.21 kcal/mol
CAGTGCACGTGGGTAG | -0.25 kcal/mol
GTTGACACGTGTGTCA | 0.04 kcal/mol
TCGTTCACGTGTTATG | 0.14 kcal/mol
TAAGGCACGTGCGCGG | -0.25 kcal/mol
TTGATCACGTGTAAGT | 0.13 kcal/mol
GTGTCCACGTGGGTGT | 0.01 kcal/mol
GGTCTCACGTGAGTAT | 0.52 kcal/mol
ATGCACACGTGGAAGT | 0.27 kcal/mol
AAGTGCACGTGGAGCT | -0.02 kcal/mol
TGATGCACGTGTGCAA | 0.07 kcal/mol
TTGTTCACGTGGAGAG | 0.29 kcal/mol
AGGGCCACGTGTGCGT | -0.08 kcal/mol
AGTAGCACGTGGGTCT | -0.38 kcal/mol
TATAACACGTGGTCTG | -0.12 kcal/mol
GCGTGCACGTGGAGTG | -0.05 kcal/mol
TCTGGCACGTGCGTAG | -0.1 kcal/mol
AGGATCACGTGGATAG | 0.21 kcal/mol
TGTAACACGTGGTAGG | -0.08 kcal/mol
GGAAGCACGTGAGGAT | 0.19 kcal/mol
TGTGTCACGTGGTTCG | 0.1 kcal/mol

Sequence | relative binding free energy
TGTGTCACGTGTTTTG | 0.07 kcal/mol
GTGCTCACGTGTTGTA | 0.25 kcal/mol
TGGACCACGTGGAGGG | 0.01 kcal/mol
TTCTTCACGTGGAAGT | 0.29 kcal/mol
TGCGGCACGTGTTGTG | -0.1 kcal/mol
ATGAACACGTGTTTAG | -0.06 kcal/mol
ACGCTCACGTGGTGTT | 0.28 kcal/mol
ATTGGCACGTGCGTTG | -0.28 kcal/mol
AGGTACACGTGGTATG | 0 kcal/mol
GAGTGCACGTGTCGTG | 0.03 kcal/mol
CTGATCACGTGGCGGT | 0.11 kcal/mol
AAGGACACGTGGGGCC | 0.02 kcal/mol
TTTTCCACGTGTAGAT | 0.24 kcal/mol
CATGCCACGTGGTGTA | -0.14 kcal/mol
TGTTTCACGTGCAAGG | 0.29 kcal/mol
TATGCCACGTGGGCGG | -0.33 kcal/mol
GGTATCACGTGGTGGA | 0.13 kcal/mol
GATAGCACGTGTGGGC | 0.09 kcal/mol
GTATACACGTGGTATA | -0.16 kcal/mol
CTTGGCACGTGGGCAT | -0.23 kcal/mol
ACGGACACGTGGGGGT | -0.11 kcal/mol
TTTTGCACGTGATTCA | 0.03 kcal/mol
TTTGCCACGTGGGGGG | -0.11 kcal/mol
AAAGACACGTGATTTG | 0.23 kcal/mol
TTTTTCACGTGTCGAT | 0.25 kcal/mol
TGATGCACGTGGAGCG | -0.02 kcal/mol

Sequence | relative binding free energy
AAGGACACGTGGAATT | 0.21 kcal/mol
ATAGGCACGTGGACAT | -0.01 kcal/mol
GAGGGCACGTGAAGTA | 0.22 kcal/mol
GTCTACACGTGGTATG | 0.12 kcal/mol
TTTTTCACGTGAAGAT | 0.35 kcal/mol
TGAATCACGTGGAGTG | 0.1 kcal/mol
TTTGACACGTGTCGGC | 0.19 kcal/mol
ATGGACACGTGGACGG | -0.07 kcal/mol
GATTTCACGTGGTGCG | 0.4 kcal/mol
AGGATCACGTGAAGTT | 0.41 kcal/mol
AGGGTCACGTGTTAGT | 0.1 kcal/mol
GGTCTCACGTGGATTT | 0.23 kcal/mol
ACTCGCACGTGTTGGT | 0.03 kcal/mol
GGCGACACGTGGGTCG | -0.09 kcal/mol
AATGTCACGTGCTATT | 0.13 kcal/mol
AGTGCCACGTGGCTGT | -0.12 kcal/mol
GTTTTCACGTGAATAT | 0.21 kcal/mol
GTAAGCACGTGGTTTT | -0.08 kcal/mol
CAGGTCACGTGGTCAG | 0.04 kcal/mol
AGTCACACGTGGGGGC | -0.04 kcal/mol
TGACGCACGTGGCGTG | -0.3 kcal/mol
TGTGGCACGTGGGAAG | -0.14 kcal/mol
TGAGGCACGTGGTCTG | -0.23 kcal/mol
CTTTTCACGTGTATTT | 0.22 kcal/mol
GTATGCACGTGTCTGA | 0.05 kcal/mol
GGTATCACGTGTGGTT | 0.21 kcal/mol

Sequence | relative binding free energy
TGTATCACGTGTGTGG | 0.18 kcal/mol
TTAGGCACGTGAAAAT | 0.31 kcal/mol
ATTAGCACGTGGATGT | 0.03 kcal/mol
TTGGTCACGTGAGAAC | 0.46 kcal/mol
TGGGTCACGTGGCTGG | 0.07 kcal/mol
AGTTTCACGTGGTTTC | 0.17 kcal/mol
TGGTCCACGTGGTTCT | -0.05 kcal/mol
TTTTTCACGTGAGGTA | 0.35 kcal/mol
GTGTTCACGTGTTAGG | 0.35 kcal/mol
AGGGTCACGTGATTTA | 0.35 kcal/mol
TTGGTCACGTGATACT | 0.24 kcal/mol
AGTCACACGTGCGTGT | 0 kcal/mol
AAAATCACGTGGTGGA | 0.03 kcal/mol
GAGCGCACGTGGGGTT | -0.27 kcal/mol
CGGCCCACGTGGGGGC | -0.15 kcal/mol
GTGAGCACGTGTCTGG | -0.19 kcal/mol
TTGACCACGTGGTAGG | -0.06 kcal/mol
GGTAACACGTGTTTGA | -0.02 kcal/mol
TTTCTCACGTGGTGTG | 0.11 kcal/mol
TGAGGCACGTGGGAAA | -0.07 kcal/mol
TATAGCACGTGTGGCT | -0.04 kcal/mol
AAGTGCACGTGGGGCA | -0.22 kcal/mol
AGGAGCACGTGGCTGT | -0.2 kcal/mol
TGGGACACGTGTGCTG | 0.01 kcal/mol
TACATCACGTGTGGTT | 0.21 kcal/mol
ATGGTCACGTGTTCTT | 0.23 kcal/mol

Sequence | relative binding free energy
TGGGACACGTGTTTTA | 0.01 kcal/mol
CGTCTCACGTGTCGGG | 0.32 kcal/mol
TGGGACACGTGTGCAT | 0.1 kcal/mol
CTTTTCACGTGAGGGA | 0.24 kcal/mol
TTTTTCACGTGGGTCT | 0.13 kcal/mol
TGTGGCACGTGAGAGT | 0.18 kcal/mol
TATTGCACGTGTGCTA | -0.05 kcal/mol
GTCAGCACGTGGGTAA | -0.04 kcal/mol
AGCGTCACGTGAAGGT | 0.18 kcal/mol
TGGCGCACGTGAAGAT | 0.19 kcal/mol
GGATACACGTGTGTAG | -0.01 kcal/mol
CTTGACACGTGGGTAA | -0.08 kcal/mol
ACGGGCACGTGGGACG | -0.24 kcal/mol
GGAGCCACGTGGGGTT | -0.31 kcal/mol
TGCTACACGTGCGTGG | -0.03 kcal/mol
AGTTACACGTGTCTTA | 0.21 kcal/mol
CGTGACACGTGGTGTT | -0.07 kcal/mol
GTGGCCACGTGTTGAA | -0.01 kcal/mol
AGTATCACGTGATGGG | 0.19 kcal/mol
CGTGGCACGTGTGATG | -0.02 kcal/mol
GGGTGCACGTGCTTAA | 0.04 kcal/mol
ATGGGCACGTGGGAAG | -0.15 kcal/mol
TTGATCACGTGGTCGA | 0.13 kcal/mol
GTCGTCACGTGGTCGG | 0.03 kcal/mol
TATGACACGTGGGTGA | -0.11 kcal/mol
TTATGCACGTGGATAA | -0.07 kcal/mol

Sequence | relative binding free energy
GTTGGCACGTGGGAAC | -0.01 kcal/mol
TGGTGCACGTGTGAGC | 0 kcal/mol
TTAGGCACGTGCGCGG | -0.16 kcal/mol
TGGGCCACGTGTGAAG | -0.01 kcal/mol
GGATTCACGTGGGGGG | 0.14 kcal/mol
CGGATCACGTGTAGGG | 0.21 kcal/mol
TGGTTCACGTGGGGAC | 0.19 kcal/mol
TTTAGCACGTGTGGGA | -0.09 kcal/mol
TTATTCACGTGCGGGG | 0.23 kcal/mol
CTTGGCACGTGTAGAT | 0.1 kcal/mol
TTGAGCACGTGGAGTA | -0.09 kcal/mol
GTGGGCACGTGCATGT | -0.08 kcal/mol
CGTTACACGTGGGATG | -0.11 kcal/mol
ATGTTCACGTGTTATG | 0.32 kcal/mol
TGAGACACGTGGGACG | -0.09 kcal/mol
CGCAGCACGTGGGTGT | -0.39 kcal/mol
CGTTTCACGTGTACGT | 0.18 kcal/mol
TTGTTCACGTGGAGTC | 0.4 kcal/mol
GAGTACACGTGTGCGG | 0.15 kcal/mol
GTTAACACGTGGGCTG | -0.08 kcal/mol
TCGGTCACGTGGCGGG | 0.1 kcal/mol
GATATCACGTGAAGGT | 0.39 kcal/mol
